The other results are listed elsewhere or left out. Sequences were assembled here from the parent chain. Values near 0.05 are background.
B1: TEV protease; numbered along this chain (parent)
chain: MGESLFKGPRDYNPISSSICHLTNESDGHTTSLYGIGFGPFIITNKHLFRRNNGTLVVQSLHGVFKVKDTTTLQQHLVDGRDMIIIRMPKDFPPFPQKLKFREPQREERICLVTTNFQTKSMSSMVSDTSCTFPSGDGIFWKHWIQTKDGQCGSPLVSTRDGFIVGIHSASNFTNTNNYFTSVPKNFMELLTNQEAQQWVSGWRLNADSVLWGGHKVFMVKPEEPFQPVKEATQL

Variants of: B1
Experiment: raw area under fraction-flipped curve 0-4 h after induction (AUC4h, not background-subtracted), DNA-recorder readout of cleavage of the substrate (dimensionless); higher = more cleavage of the substrate by the protease variant
Settings: temperature: 34 °C; time window: 0-4 h after rhamnose induction
Description: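 In vivo DNA recorder in E. coli TOP10(DE3) ΔrhaA at 34 °C. Each TEVp single-site mutant (parent TEVp 0) is paired with a single-site variant of the 7-mer TEVs (canonical ENLYFQ|S). The substrate sits between flexible linkers in a Bxb1-sfGFP-TEVs-SsrA fusion, so cleavage stabilises Bxb1 and speeds flipping of a recombination array, read by NGS. The value is the raw area under the fraction-flipped curve over 0-4 h after rhamnose induction (AUC4h), with ≥20 reads per time point. It is not background-subtracted; inactive controls average about 0.047.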
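Further: Bxb1 expression induced with 0.2% (w/v) L-rhamnose at OD600 near 0.5, cultures sampled hourly, flipped fraction per protease–substrate barcode pair counted by paired-end Illumina sequencing.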

Variant | area with substrate ENLYFAS | area with substrate ENLYFCS | area with substrate ENLYFDS | area with substrate ENLYFES | area with substrate ENLYFFS | area with substrate ENLYFHS | area with substrate ENLYFIS | area with substrate ENLYFLS | area with substrate ENLYFMS | area with substrate ENLYFNS | area with substrate ENLYFPS | area with substrate ENLYFRS | area with substrate ENLYFSS | area with substrate ENLYFTS | area with substrate ENLYFVS | area with substrate ENLYFWS | area with substrate ENLYFYS | area with substrate ENLYFGS | area with substrate ENLYFKS
MGESLFKGPRDYNPISSSICHLTNESDGHTTSLYGIGFGPFIITNKHLFRRNNGTLVVQSLHGVFKVKDTTTLQQHLVDGRDMIIIRMPKDFPPFPQKLKFREPQREERICLVTTNFQTKSMSSMVSDTSCDFPSGDGIFWKHWIQTKDGQCGSPLVSTRDGFIVGIHSASNFTNTNNYFTSVPKNFMELLTNQEAQQWVSGWRLNADSVLWGGHKVFMVKPEEPFQPVKEATQL [T132D] | 0.0445 | 0.0469 | 0.0496 | 0.0499 | 0.0576 | 0.0586 | 0.0435 | 0.045 | 0.0539 | 0.0534 | 0.0523 | 0.0612 | 0.0598 | 0.0433 | 0.0491 | 0.0466 | 0.0503 |  | 
MGESLFKGPRDYNPISSSICHLTNESDGHTTSLYGIGFGPFIITNKHLFRRNNGTLVVQSLHGVFKVKDTTTLQQHLVDGRDMIIIRMPKDFPPFPQKLKFREPQREERICLVTTNFQTKSMSSMVSDTSCMFPSGDGIFWKHWIQTKDGQCGSPLVSTRDGFIVGIHSASNFTNTNNYFTSVPKNFMELLTNQEAQQWVSGWRLNADSVLWGGHKVFMVKPEEPFQPVKEATQL [T132M] | 0.0519 | 0.063 | 0.0488 | 0.0608 | 0.0565 | 0.062 | 0.051 | 0.0759 | 0.0674 | 0.0583 | 0.0465 | 0.0565 | 0.0603 | 0.0615 | 0.0471 |  | 0.0369 | 0.0687 | 0.0601
MGESLFKGPRDYNPISSSICHLTNESDGHTTSLYGIGFGPFIITNKHLFRRNNGTLVVQSLHGVFKVKDTTTLQQHLVDGRDMIIIRMPKDFPPFPQKLKFREPQREERICLVTTNFQTKSMSSMVSDTSCTFCSGDGIFWKHWIQTKDGQCGSPLVSTRDGFIVGIHSASNFTNTNNYFTSVPKNFMELLTNQEAQQWVSGWRLNADSVLWGGHKVFMVKPEEPFQPVKEATQL [P134C] | 0.0408 | 0.0616 | 0.0643 | 0.0719 | 0.0706 | 0.0578 | 0.0602 | 0.0482 | 0.066 | 0.0598 | 0.0527 | 0.0669 | 0.07 | 0.0541 |  | 0.062 | 0.0536 | 0.0584 | 
MGESLFKGPRDYNPISSSICHLTNESDGHTTSLYGIGFGPFIITNKHLFRRNNGTLVVQSLHGVFKVKDTTTLQQHLVDGRDMIIIRMPKDFPPFPQKLKFREPQREERICLVTTNFQTKSMSSMVTDTSCTFPSGDGIFWKHWIQTKDGQCGSPLVSTRDGFIVGIHSASNFTNTNNYFTSVPKNFMELLTNQEAQQWVSGWRLNADSVLWGGHKVFMVKPEEPFQPVKEATQL [S127T] | 0.0599 | 0.0517 | 0.0634 | 0.0609 | 0.0552 | 0.0584 | 0.0598 |  | 0.0653 | 0.0531 | 0.0622 |  |  |  |  | 0.0645 |  | 0.0618 | 0.0617
MGESLFKGPRDYNPISSSICHLTNESDGHTTSLYGIGFGPFIITNKHLFRRNNGTLVVQSLHGVFKVKDTTTLQQHLVDGRDMIIIRMPKDFPPFPQKLKFREPQREERICLVTTNFQTKSMSSMTSDTSCTFPSGDGIFWKHWIQTKDGQCGSPLVSTRDGFIVGIHSASNFTNTNNYFTSVPKNFMELLTNQEAQQWVSGWRLNADSVLWGGHKVFMVKPEEPFQPVKEATQL [V126T] | 0.0497 | 0.0676 |  | 0.0613 | 0.0447 |  | 0.061 | 0.0529 | 0.072 | 0.0566 |  |  | 0.0523 | 0.0494 |  |  | 0.0604 | 0.0521 | 0.0632
MGESLFKGPRDYNPISSSICHLTNESDGHTTSLYGIGFGPFIITNKHLFRRNNGTLVVQSLHGVFKVKDTTTLQQHLVDGRDMIIIRMPKDFPPFPQKLKFREPQREERICLVTTNFQTKSMSSMVSDTSCTGPSGDGIFWKHWIQTKDGQCGSPLVSTRDGFIVGIHSASNFTNTNNYFTSVPKNFMELLTNQEAQQWVSGWRLNADSVLWGGHKVFMVKPEEPFQPVKEATQL [F133G] | 0.0093 | 0.0716 |  | 0.0804 | 0.0752 | 0.0472 | 0.0604 |  | 0.0696 | 0.0664 | 0.0597 | 0.0593 |  |  |  | 0.0636 |  |  | 0.067
MGESLFKGPRDYNPISSSICHLTNESDGHTTSLYGIGFGPFIITNKHLFRRNNGTLVVQSLHGVFKVKDTTTLQQHLVDGRDMIIIRMPKDFPPFPQKLKFREPQREERICLVTTNFQTKSMSSMVSSTSCTFPSGDGIFWKHWIQTKDGQCGSPLVSTRDGFIVGIHSASNFTNTNNYFTSVPKNFMELLTNQEAQQWVSGWRLNADSVLWGGHKVFMVKPEEPFQPVKEATQL [D128S] | 0.0607 |  |  | 0.0733 | 0.0739 |  | 0.0553 |  | 0.0626 | 0.055 | 0.0542 | 0.0684 |  |  | 0.0337 | 0.0372 |  | 0.0571 | 
MGESLFKGPRDYNPISSSICHLTNESDGHTTSLYGIGFGPFIITNKHLFRRNNGTLVVQSLHGVFKVKDTTTLQQHLVDGRDMIIIRMPKDFPPFPQKLKFREPQREERICLVTTNFQTKSMSSMVSGTSCTFPSGDGIFWKHWIQTKDGQCGSPLVSTRDGFIVGIHSASNFTNTNNYFTSVPKNFMELLTNQEAQQWVSGWRLNADSVLWGGHKVFMVKPEEPFQPVKEATQL [D128G] | 0.036 |  |  |  |  |  |  |  | 0.0734 |  |  |  |  |  |  |  |  |  | 
MGESLFKGPRDYNPISSSICHLTNESDGHTTSLYGIGFGPFIITNKHLFRRNNGTLVVQSLHGVFKVKDTTTLQQHLVDGRDMIIIRMPKDFPPFPQKLKFREPQREERICLVTTNFQTKSMSSMVSDTRCTFPSGDGIFWKHWIQTKDGQCGSPLVSTRDGFIVGIHSASNFTNTNNYFTSVPKNFMELLTNQEAQQWVSGWRLNADSVLWGGHKVFMVKPEEPFQPVKEATQL [S130R] | 0.0454 | 0.059 |  |  | 0.0637 | 0.0527 | 0.0457 |  | 0.0684 | 0.0481 | 0.0581 | 0.0733 | 0.0536 | 0.0427 |  |  |  | 0.0441 | 0.0644
